The chains are these.
T1: UNK ZnF1-3 (human, UniProt Q9C0B0 31-174)
T1 sequence: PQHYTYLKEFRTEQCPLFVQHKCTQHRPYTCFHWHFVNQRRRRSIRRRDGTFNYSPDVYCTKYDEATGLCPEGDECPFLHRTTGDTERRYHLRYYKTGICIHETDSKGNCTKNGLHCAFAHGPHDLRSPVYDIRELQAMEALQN

B1: chr2:119552488:119552489:+_ENSMUSG00000027304_ENSMUST00000028767|mus_hu|motif|central (ssRNA)
RNA: GGGAGUUCUACAGUCCGACGAUCGAACAUCGCUUCUUUCCACUUCAUAAACUCACUUUCGGUGAAUUCUUGGUUUGAGACAAACUCGGAACGGAACACGCGUUGGUCAUUGCCAUGCCGUAGUUGCAGCCCUUUGUUUGUUCUCAACAGAGGAUUGAGCAUCA
B2: chr8:3623242:3623243:+_ENSMUSG00000087687_ENSMUST00000156380|mus_hu|FALSE|FALSE (ssRNA)
RNA: GGGAGUUCUACAGUCCGACGAUCCUGCUGGGCGUCGCGAAGGAGCUUCUCCUCCCGCCGCUUCCGUAACCUCUCUUUGAAUUCCUCUAUCUCUUGAAGCUUCUCAGGUGGCCACAGCUCCCUCUUGCGCUGUAUGACAUCGUCCAACAGAGGAUUGAGCAUCA
B3: chr2:61275951:61275952:+_ENSG00000162928_ENST00000295030|hu_mus|motif|central (ssRNA)
RNA: GGGAGUUCUACAGUCCGACGAUCGCUUUCAUUCAACUGCAAAUUAAUUUCUCUGUAAGAAAUGAUUUUUUAAAAUACUCGGAAAUAUUGUUCACCUGCCCACAAACAUGAAACACAUCAAAGAUCUUGUUUGUCUCCAUUUUUCAACAGAGGAUUGAGCAUCA
B4: chrX:147082729:147082730:-_ENSMUSG00000025272_ENSMUST00000087258|mus_hu|FALSE|FALSE (ssRNA)
RNA: GGGAGUUCUACAGUCCGACGAUCACCGAAGCAGAUACUGGUACUGAGUGUACCACCAAAGCUACCACUGGAGCUGGGAGAGCCACCAAAACAGACACUGGUGCUGAGUAUGCCUCCAAAGCCAGUGCUGGUGCUAAGCGCACUCAACAGAGGAUUGAGCAUCA
B5: chr1:138071448:138071449:+_ENSMUSG00000041642_ENSMUST00000075164|mus_mus|FALSE|FALSE (ssRNA)
RNA: GGGAGUUCUACAGUCCGACGAUCGGUAUGCCGGCAUGGGCAGGUCCGGGGCAAUUGUCAGAGCUGCAAAGGAUAGAGAAGGCUAUCCCCUCAUCUGCAGAGCAAGCAGAGGGAAGGCCCCCACCCCCACCCCACCCCACCCCACAACAGAGGAUUGAGCAUCA
B6: chr5:23013406:23013407:-_ENSMUSG00000062604_ENSMUST00000088392|mus_hu|motif|central (ssRNA)
RNA: GGGAGUUCUACAGUCCGACGAUCGUCCAAUGUACUGGGAACAUUUGCUAGCUCAGAAUGCAAUAUUGGUAGAAUUUGCGGAGAAUUCAACCAAGGAUGCCGAAGGCAUUCGCCAGCUGAGGCUCGUUUUUCUGGAACCAUUUCCAACAGAGGAUUGAGCAUCA
B7: chr19:16212804:16212805:+_ENSG00000167460_ENST00000300933|hu_mus|hu_hu_hu_mus_False|18_88 (ssRNA)
RNA: GGGAGUUCUACAGUCCGACGAUCAACAAUUCUGGAGUGAAGGAAAGCAUCAAGGAUGAACAGCAUUAAAGCUCAGUCAGAAGGCACAUGGGCAACAAUGAUCACCCCAGCAUUCUCCUACGUUGACCUUAAAGACAAUCUGUUCAACAGAGGAUUGAGCAUCA
B8: chr11:29608261:29608262:+_ENSMUSG00000020458_ENSMUST00000102843|mus_mus|FALSE|FALSE (ssRNA)
RNA: GGGAGUUCUACAGUCCGACGAUCAGAAGAAAGUAAGUCAUCAUUGGAAUAAAUUGCAGUAUUAAACUCUUCCAUUUGCAAAGAAAUUGUCUCCUUUUUGGUCAAUGUUGGAAUUUCAUUAGAUGCAGCAUCUUUUGUAAUAUGCAACAGAGGAUUGAGCAUCA
B9: chr18:32579733:32579734:+_ENSMUSG00000024381_ENSMUST00000025239|mus_hu|motif|central (ssRNA)
RNA: GGGAGUUCUACAGUCCGACGAUCCUUGUGGAAGUUUUCCUCCAGGCCCGCGAUGCUCUGGAACGUGUUGACGUAGAAACCGGCGCGGCUGUUCCACAGGGACGGCAGCUCCUCCUGCAGAUCCACAUUCAUCUCCUCAAACACCAACAGAGGAUUGAGCAUCA
B10: chr13:110848956:110848957:-_ENSMUSG00000021700_ENSMUST00000167824|mus_hu|motif|central (ssRNA)
RNA: GGGAGUUCUACAGUCCGACGAUCAGGUACCAACACCAAAGCUCUUGGAAGAAUCGAUUUGGAACAGUUCAGGUUUAUUCCGGAGGGUAUCUAGAGGAGUGAAAGUGGUCAGGUAAUGAGUAGCAAAGGAAAAUAAAUUCAUACCAACAGAGGAUUGAGCAUCA
B11: 130224625_130236081_933_CDS_ENSG00000148356_ENST00000300417|human|control|control (ssRNA)
RNA: GGGAGUUCUACAGUCCGACGAUCCUCUUUGCAGAGGAACUGCAAGAUGGCCGCAGUGCCGGCACCACACACCUCCCGCGGCGGGUAGACCAUGGCCGAGGCGUCAAGGCUCAGCAUCUCCAGGGUUCGAACGUGAGCCAGCAUCAACAGAGGAUUGAGCAUCA
B12: 24728237_24728357_11170_CDS_ENSMUSG00000032855_ENSMUST00000035565|mouse|control|control (ssRNA)
RNA: GGGAGUUCUACAGUCCGACGAUCUGGGGGCCGCACACGGGGCACACGCUCACUUACAGGGGUUACAGCUGGGCUCUCUACCAGAGUGUCAUCUUCAUCAGGGUGAAGCCGCUUGGCCACAAGGGAGAAGUAGAGGGCUUCCAGCAACAGAGGAUUGAGCAUCA
B13: chr17:64801638:64801639:+_ENSG00000154229_ENST00000413366|hu_mus|hu_hu_hu_mus_False|38_98 (ssRNA)
RNA: GGGAGUUCUACAGUCCGACGAUCUAUAUAUAUAUAUAUAUACACACACAUAUAUAGUAAAACCCUAGUUAAACGUGUAAAGUAGCCAUUCAUUUUUGAAAUUUUAUCUACAUUAAAAAAUUAAUAUAUCUGAUAGAGUGCCAGCAACAGAGGAUUGAGCAUCA
B14: chr3:123074248:123074249:-_ENSMUSG00000028114_ENSMUST00000029759|mus_mus|FALSE|FALSE (ssRNA)
RNA: GGGAGUUCUACAGUCCGACGAUCGAUAGUGCUAUCUCUCCCAAAGAGAUGAAGGCGUCUUCUACCAAGACAAAAAUGUUCUAUUAUAUGAAAAAUUUCUACUGGUUUUUCUAUAUUGCCAAUCUCAGGUUCUUCUGUGAUAAUCAACAGAGGAUUGAGCAUCA
B15: chr10:33190432:33190433:-_ENSG00000150093_ENST00000302278|hu_mus|hu_hu_hu_mus_True|88_108 (ssRNA)
RNA: GGGAGUUCUACAGUCCGACGAUCUACAUUUUCAAAACCUGCAUGUGAGUAAAACCAUGGCCACAGAGCCCCAAAACUACCCUACUGUGACUAAGAUGCUGCUGCUGUGAGCUUGGUGUUGCAAAAUCCGCCUGAGUAGGAUUCCAACAGAGGAUUGAGCAUCA
B16: 72054991_72055111_810_CDS_ENSG00000197555_ENST00000555818|human|control|control (ssRNA)
RNA: GGGAGUUCUACAGUCCGACGAUCGCUUCGCUGGCGUAUUCUGCGAAGAGCUUUUCUGGGGGAGCUGGGGUAGGCUUCAGGCAUGAGAAAUCUGGAGUCCAUGUUCUCCGACGGUCUUGUCUUGUUUUUCAGCGUGUUCUGUAUCAACAGAGGAUUGAGCAUCA
B17: chr1:63223577:63223578:+_ENSMUSG00000025967_ENSMUST00000129339|mus_mus|FALSE|FALSE (ssRNA)
RNA: GGGAGUUCUACAGUCCGACGAUCAAAGGUCAAGGUCCGUUCCUAGUCUCGGUCCUCCGCGUACCACUGCGACUUGGUAACUAAAGGGCCCACAGGUCGUCCGCCGGCCUUCCCUUGUCUUUGGAAGAAAAUUAAUAAAGGAGGCAACAGAGGAUUGAGCAUCA
B18: chr1:39494564:39494565:+_ENSG00000168653_ENST00000372967|hu_hu|hu_hu_hu_mus_True|38_78 (ssRNA)
RNA: GGGAGUUCUACAGUCCGACGAUCAUGCAUUCGCCUCAUCGUUUUGUACCGAAGCAAACACUCUACGAAGUCAUCGAACUCUAUCUUGCACUCCUUUUCUGCCCGAGUCCCACCGAUCCCGUGUGCACACUCUAUCCACUCUUUCAACAGAGGAUUGAGCAUCA
B19: chr19:8913615:8913616:-_ENSMUSG00000071658_ENSMUST00000096259|mus_hu|mus_mus_mus_hu_False|88_108 (ssRNA)
RNA: GGGAGUUCUACAGUCCGACGAUCAGGGGGGCACCAACUUCUGCCUGAGAUAGGUGCCCCACCCAGUAGGGAGUUGCAGCUGAAAGUAUCUGAUGCAGAAGCAGUGACUAUACGAAAGGAGGCCCCUGGGGAGGGCCAGGCCAGCAACAGAGGAUUGAGCAUCA
B20: chr14:54897011:54897012:-_ENSG00000100528_ENST00000216416|hu_hu|FALSE|FALSE (ssRNA)
RNA: GGGAGUUCUACAGUCCGACGAUCCACCAAAACAUAGAUCAUGCCAUAUAGGUAGUAAAAAAAUGCUAGAAGAUAAAAAGCUAAUUUGCACCAUCCUUCCUUCUGACAAUAUGCUAGAAUAUCUGCAUUCAUGAUGGUUGUAGGCAACAGAGGAUUGAGCAUCA
B21: chr8:74585381:74585382:-_ENSG00000040341_ENST00000355780|hu_hu|motif|central (ssRNA)
RNA: GGGAGUUCUACAGUCCGACGAUCAGGCACUGGGCAAUGAUACCUCUGAUUGUACAUGCCCCGAAAGUUGUAAUUAGCUCGGUAAUUUGGGAAUGGCUUUGGAUCUAAUGGCCUGUAGAUGGCAGGCUCUCCCCUUUUCAUAGCCAACAGAGGAUUGAGCAUCA
B22: chr8:80553714:80553715:+_ENSG00000104435_ENST00000220876|hu_hu|FALSE|FALSE (ssRNA)
RNA: GGGAGUUCUACAGUCCGACGAUCAGCCUCCAGUUUCUUCUGGAUCUCCUCCAGGGACAGGUCUUUCUUCUUUGGAGAAGCUAAAGUUCGUGGGGCUUCUGAGAUAGGAGAUGGUGGCUUCAAGAUCAGCUCAAAAGCCUGGCCCAACAGAGGAUUGAGCAUCA

This is one part of the list.

From article PMC12136788 come the findings set out here.

The target of this assay is T1, UNK ZnF1-3. The experiment in a line: nsRBNS (natural sequence RNA bind-n-seq); RBNS binding buffer (assumed for nsRBNS): 25 mM Tris pH 7.5, 150 mM KCl, 3 mM MgCl2, 0.01% Triton X-100, 500 ug/ml BSA, 20 U/ml SUPERase-In, 4 C; UNK is unkempt and MSI1 is Musashi-1; names of the RNAs are library labels; protein concentration not given here; high values mean tight binding.
The molecule B1 came in with a binding signal of 0.412 enrichment R. For the molecule B2, the binding signal worked out at 0.517 enrichment R. Next, B3: 1.3 enrichment R; B4: 1.01 enrichment R; B5: 1.41 enrichment R. For B6 the value was 1.08 enrichment R; for B7, 1.37 enrichment R. For B8 the value was 0.789 enrichment R; for B9, 0.504 enrichment R. B10: the binding signal came out at 2.28 enrichment R. Next, B11: 1.2 enrichment R; B12: 1.22 enrichment R.

For B13, the binding signal was 2.38 enrichment R. Next, B14: 1.27 enrichment R; B15: 1.12 enrichment R. Next, B16: 0.848 enrichment R; B17: 0.807 enrichment R; B18: 0.724 enrichment R. Next, B19: 1.28 enrichment R.

B20 gave a binding signal of 1.19 enrichment R. For B21 the value was 0.869 enrichment R; for B22, 1.02 enrichment R.
